Here are results for one molecule from publication doi:10.1101/2021.08.18.456755 (bioRxiv, 2021).

In the assay the target is Hs-Ubc9 (human E2 conjugating enzyme Ubc9), untagged (human, UniProt P63279). In words: ITC. Background: Isothermal titration calorimetry measures the heat released or taken up as one component is titrated into another.
Sequence of UniProt P63279 (P63279 whole entry): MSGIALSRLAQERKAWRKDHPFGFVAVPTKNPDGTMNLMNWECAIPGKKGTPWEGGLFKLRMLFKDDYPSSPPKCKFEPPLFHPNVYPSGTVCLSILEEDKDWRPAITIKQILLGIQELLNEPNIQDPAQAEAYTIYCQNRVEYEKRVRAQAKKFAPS

B1: Hs-SUMO1 (human SUMO1), untagged (natural protein)
chain: not shown
As usually defined, the Kd is the equilibrium constant for the complex coming apart. A high value points to lower affinity. Consider B1, for which the Kd is 4.18 ± 0.2 µM.
